The supplement of paper PMC12217912
The other results are listed elsewhere or left out. Sequences were assembled here from the parent chain. Inactive controls read about 0.05.

B1: TEV protease; numbered along this chain (parent)
chain: MGESLFKGPRDYNPISSSICHLTNESDGHTTSLYGIGFGPFIITNKHLFRRNNGTLVVQSLHGVFKVKDTTTLQQHLVDGRDMIIIRMPKDFPPFPQKLKFREPQREERICLVTTNFQTKSMSSMVSDTSCTFPSGDGIFWKHWIQTKDGQCGSPLVSTRDGFIVGIHSASNFTNTNNYFTSVPKNFMELLTNQEAQQWVSGWRLNADSVLWGGHKVFMVKPEEPFQPVKEATQL

Variants of: B1
Assay: raw area under fraction-flipped curve 0-4 h after induction (AUC4h, not background-subtracted), DNA-recorder readout of cleavage of the substrate (dimensionless); higher = more cleavage of the substrate by the protease variant
Settings: temperature: 34 °C; time window: 0-4 h after rhamnose induction
Protocol: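 In vivo DNA recorder in E. coli TOP10(DE3) ΔrhaA at 34 °C. Each TEVp single-site mutant (parent TEVp 0) is paired with a single-site variant of the 7-mer TEVs (canonical ENLYFQ|S). The substrate sits between flexible linkers in a Bxb1-sfGFP-TEVs-SsrA fusion, so cleavage stabilises Bxb1 and speeds flipping of a recombination array, read by NGS. The value is the raw area under the fraction-flipped curve over 0-4 h after rhamnose induction (AUC4h), with ≥20 reads per time point. It is not background-subtracted; inactive controls average about 0.047.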
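Further: Bxb1 expression induced with 0.2% (w/v) L-rhamnose at OD600 near 0.5, cultures sampled hourly, flipped fraction per protease–substrate barcode pair counted by paired-end Illumina sequencing.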

Q105I
area with substrate ENLYCQS: 0.0889 | area with substrate ENLYDQS: 0.0648 | area with substrate ENLYEQS: 0.0985 | area with substrate ENLYGQS: 0.0664 | area with substrate ENLYHQS: 0.0694 | area with substrate ENLYIQS: 0.119 | area with substrate ENLYMQS: 0.0888 | area with substrate ENLYNQS: 0.0697 | area with substrate ENLYPQS: 0.051 | area with substrate ENLYQQS: 0.0401 | area with substrate ENLYRQS: 0.0627 | area with substrate ENLYSQS: 0.0777 | area with substrate ENLYTQS: 0.0881 | area with substrate ENLYVQS: 0.123 | area with substrate ENLYWQS: 0.046 | area with substrate ENLYYQS: 0.0705

Q105L
area with substrate ENLYDQS: 0.0545 | area with substrate ENLYEQS: 0.102 | area with substrate ENLYHQS: 0.0556 | area with substrate ENLYIQS: 0.132 | area with substrate ENLYKQS: 0.0399 | area with substrate ENLYMQS: 0.0951 | area with substrate ENLYNQS: 0.0834 | area with substrate ENLYPQS: 0.0719 | area with substrate ENLYQQS: 0.049 | area with substrate ENLYSQS: 0.0643 | area with substrate ENLYTQS: 0.098 | area with substrate ENLYVQS: 0.11

F38K
area with substrate ENLYCQS: 0.0513 | area with substrate ENLYDQS: 0.0489 | area with substrate ENLYEQS: 0.0452 | area with substrate ENLYGQS: 0.0553 | area with substrate ENLYHQS: 0.0466 | area with substrate ENLYIQS: 0.0627 | area with substrate ENLYMQS: 0.0659 | area with substrate ENLYNQS: 0.0528 | area with substrate ENLYPQS: 0.0512 | area with substrate ENLYQQS: 0.0551 | area with substrate ENLYSQS: 0.0549 | area with substrate ENLYVQS: 0.0633

E231V
area with substrate ENLYCQS: 0.0907 | area with substrate ENLYDQS: 0.0753 | area with substrate ENLYEQS: 0.0901 | area with substrate ENLYHQS: 0.0905 | area with substrate ENLYIQS: 0.0989 | area with substrate ENLYKQS: 0.0369 | area with substrate ENLYMQS: 0.0655 | area with substrate ENLYNQS: 0.0784 | area with substrate ENLYQQS: 0.0478 | area with substrate ENLYRQS: 0.0688 | area with substrate ENLYTQS: 0.0884 | area with substrate ENLYVQS: 0.125 | area with substrate ENLYWQS: 0.0882 | area with substrate ENLYYQS: 0.0682

H76L
area with substrate ENLYCQS: 0.0705 | area with substrate ENLYDQS: 0.0681 | area with substrate ENLYGQS: 0.0556 | area with substrate ENLYHQS: 0.041 | area with substrate ENLYKQS: 0.0623 | area with substrate ENLYLQS: 0.103 | area with substrate ENLYMQS: 0.0932 | area with substrate ENLYNQS: 0.0706 | area with substrate ENLYQQS: 0.0676 | area with substrate ENLYTQS: 0.0844 | area with substrate ENLYVQS: 0.138 | area with substrate ENLYWQS: 0.0823 | area with substrate ENLYYQS: 0.077

D79K
area with substrate ENLYCQS: 0.0779 | area with substrate ENLYEQS: 0.0683 | area with substrate ENLYHQS: 0.0627 | area with substrate ENLYIQS: 0.105 | area with substrate ENLYMQS: 0.0663 | area with substrate ENLYNQS: 0.0597 | area with substrate ENLYPQS: 0.0746 | area with substrate ENLYRQS: 0.0534 | area with substrate ENLYSQS: 0.0675 | area with substrate ENLYTQS: 0.0699 | area with substrate ENLYVQS: 0.0971 | area with substrate ENLYWQS: 0.0673

D27S
area with substrate ENLYCQS: 0.0852 | area with substrate ENLYDQS: 0.0725 | area with substrate ENLYEQS: 0.046 | area with substrate ENLYGQS: 0.0703 | area with substrate ENLYHQS: 0.0584 | area with substrate ENLYKQS: 0.0672 | area with substrate ENLYMQS: 0.0874 | area with substrate ENLYNQS: 0.0927 | area with substrate ENLYPQS: 0.061 | area with substrate ENLYQQS: 0.0705 | area with substrate ENLYRQS: 0.0552 | area with substrate ENLYVQS: 0.104 | area with substrate ENLYWQS: 0.082 | area with substrate ENLYYQS: 0.0572
